Laboratory results published in PubChem BioAssay AID1468 (National Center for Advancing Translational Sciences (NCATS), 2008).
Hit rate of the full screen: of about 280,000 compounds, about 1,100 (0.39%) were called active. Inconclusive results, whose numbers are uncertain, are shown with a selection of clear calls. The call rests on the fitted dose curve; in most records, active means well fitted inhibition curve with a large enough effect; inconclusive means small, poorly fitted or top-dose-only effect, or effect the other way; inactive means flat fitted curve, though single readings scatter. No potency is given beside an inconclusive call; the fits are too rough.

Each compound was assayed against Microtubule-associated protein tau (Homo sapiens) (UniProt P10636) (assay: qHTS for Inhibitors of Tau Fibril Formation, Fluorescence Polarization). Conditions: K18 P301L tau heparin fibrillization, Alexa594 FP, 6 h; series mostly up to 57.7 µM.
Chain of UniProt P10636 (P10636 whole entry, looked up, the tested form may be a part): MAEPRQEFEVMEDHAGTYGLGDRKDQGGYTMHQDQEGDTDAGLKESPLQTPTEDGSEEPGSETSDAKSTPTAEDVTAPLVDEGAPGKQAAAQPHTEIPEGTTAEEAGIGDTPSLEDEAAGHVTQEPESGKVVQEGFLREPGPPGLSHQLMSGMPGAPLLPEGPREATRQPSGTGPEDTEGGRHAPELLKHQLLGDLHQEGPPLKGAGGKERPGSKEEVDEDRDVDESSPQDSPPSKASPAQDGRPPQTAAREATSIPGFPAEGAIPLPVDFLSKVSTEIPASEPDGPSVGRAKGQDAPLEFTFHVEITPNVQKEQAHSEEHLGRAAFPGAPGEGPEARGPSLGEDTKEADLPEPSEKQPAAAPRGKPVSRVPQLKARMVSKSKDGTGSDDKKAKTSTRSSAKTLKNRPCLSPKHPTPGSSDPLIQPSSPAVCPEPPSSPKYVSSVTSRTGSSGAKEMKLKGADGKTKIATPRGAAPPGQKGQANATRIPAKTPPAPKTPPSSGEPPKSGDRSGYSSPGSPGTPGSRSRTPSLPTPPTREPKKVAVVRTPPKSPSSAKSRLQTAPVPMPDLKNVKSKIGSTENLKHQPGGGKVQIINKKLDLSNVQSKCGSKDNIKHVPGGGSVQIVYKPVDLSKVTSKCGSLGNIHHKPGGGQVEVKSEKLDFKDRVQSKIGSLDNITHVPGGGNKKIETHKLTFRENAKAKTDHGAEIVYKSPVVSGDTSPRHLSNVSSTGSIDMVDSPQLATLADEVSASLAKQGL
How it was run: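 Human K18 P301L fragment (15 uM unlabeled plus 0.24 uM Alexa 594-labeled) in 100 mM sodium acetate pH 7 with compound, aggregation induced by 20 uM heparin for 6 hr at 37 C. ThT (30 uM) added for 1 hr, then Alexa 594 FP read.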
Further: nearly all actives have a fitted effect of over 55% in size.
Potency means the concentration at half of the fitted maximal effect; tags describe the fitted curve by direction and shape.

SMILES | Potency
N/C(=N/OS(=O)(=O)c1ccc([N+](=O)[O-])cc1)c1ccncc1 | inactive
CC(/C=C1\SC(=S)N(NC(=O)c2cccc(O)c2)C1=O)=C\c1ccccc1 | active: 14.1 µM
O=Cc1ccc(Sc2nnc(-c3ccccc3)o2)c([N+](=O)[O-])c1 | inconclusive [inhibitor, single point]
CCOc1ccccc1C(=O)Nc1c(C(=O)Nc2ccc(F)cc2)oc2ccccc12 | inconclusive [inhibitor, partial curve]
Cc1ccc(N/N=C2\CC(=O)c3ccccc32)cc1Cl | inconclusive [inhibitor, partial curve]
COc1cc(NC(=O)CN2C(=O)C(c3ccccc3)=NC23CCCCCC3)cc(OC)c1 | inconclusive [inhibitor, partial curve]
COc1cc(C(=O)NC(=S)Nc2ccc(NC(=O)c3ccco3)cc2)cc(OC)c1OC | inconclusive [inhibitor, partial curve]
CC(C)c1ccc(C(=O)Nc2cc(-c3ccccc3F)nn2-c2ccccc2)cc1 | inconclusive [inhibitor, single point]
Cc1cc(NC(=O)c2ccc(S(=O)(=O)N3CCCC3)cc2)nc2c1c(=O)oc1ccccc12 | inconclusive [inhibitor, single point]
Cc1cccc(C)c1Nc1nnc(SCC(=O)c2ccc3c(c2)NC(=O)CO3)s1 | inconclusive [inhibitor, single point]
Cc1cccc(C(=O)N2CCc3cc(CNS(=O)(=O)c4ccc(Cl)s4)ccc32)c1 | inactive
Cc1ccccc1OCC(=O)Nc1ccc(-c2nc3ncccc3o2)cc1 | inconclusive [inhibitor, single point]
CC(=O)Nc1ccc(-c2cn3ccsc3n2)cc1 | inactive
COc1ccc(C2C(C(=O)O)CC(=O)N2c2ccc(OC)cc2)cc1 (centres undefined) | inactive
O=C(Nc1ccccc1)Nc1ccc(C(=O)N2CCCC2)cc1 | inactive
CCOC(=O)c1sc(NC(=O)c2ccc(S(=O)(=O)N3CCOCC3)cc2)nc1-c1ccccc1 | inconclusive [inhibitor, partial curve]
Cc1cccc(NC(=O)CSc2nncn2C)c1 | inconclusive [inhibitor, single point]
O=C1Nc2ccccc2/C1=N/N=C/c1cccc(O)c1 | inactive
Cc1ccc(S(=O)(=O)c2c(Nc3cc(F)ccc3F)sc(C(=O)c3ccc(F)cc3)c2N)cc1 | inconclusive [inhibitor, single point]
COc1ccccc1OCc1ccc(C(=O)NN)o1 | inactive
CC(=O)Nc1nonc1-c1nnc(SCC(=O)Nc2cc(C)cc(C)c2)n1-c1ccccc1 | inactive
NS(=O)(=O)c1ccc(CCNC(=O)C2CCCN2C(=O)OCc2ccccc2)cc1 (centres undefined) | inconclusive [inhibitor, single point]

SMILES | Potency
O=S(=O)(NCC(c1ccco1)N1CCOCC1)c1cc(F)ccc1F (centres undefined) | inconclusive [inhibitor, single point]
COc1cccc(CS(=O)(=O)c2ccccc2)c1 | inactive
Cc1cc(C)cc(NC(=O)C2CCCN(C(=O)c3cnn(-c4ccccc4)c3-n3cccc3)C2)c1 (centres undefined) | inactive
Cc1ccn2c(-c3n[nH]c(=S)n3C)c(C)nc2c1 | inactive
O=C(Nc1ccc(Cl)c(Cl)c1)OCc1cccnc1 | active: 14.1 µM
C=CCNC(=S)NNC(=O)C(CCCC)CC(C)O (centres undefined) | inconclusive [inhibitor, partial curve, poor fit]
NC(=NCc1ccc(Cl)c(Cl)c1)NC(=O)c1nc(Cl)c(N)nc1N | inactive
Cc1ccc(N2C(=O)C3C(C2=O)N2C(c4cccs4)C4C(=O)N(c5ccc(C)cc5)C(=O)C4N2C3c2cccs2)cc1 (centres undefined) | inconclusive [inhibitor, single point]
CCC(C)[C@H](N)c1nnc(SCC(=O)c2ccc(Cl)cc2)o1 (some centres undefined) | inconclusive [inhibitor, full curve, poor fit]
CC12C=C(/C=C/CCc3ccco3)C(C)(C1)[C@H](CCc1ccco1)CC2=O (some centres undefined) | inactive
CC(=O)/C=C/n1c(=S)oc2ccccc21 | inconclusive [inhibitor, partial curve]
O=c1[nH]c(-[n+]2ccccc2)c(/C=N/NC([S-])=Nc2ccccc2)s1 | inconclusive [inhibitor, partial curve]
Cc1cccn2c(=O)cc(COc3cccc(NC(=O)COc4ccc(F)cc4)c3)nc12 | inactive
COc1ccc(/C=N/Nc2cc(C)nc(N3CCOCC3)n2)c(OC)c1 | inconclusive [activator, single point]
Cc1ccc(-n2ncc(C(=O)NCCc3c[nH]c4ccccc34)c2C2CCN(C(=O)OC(C)(C)C)CC2)cc1C | inconclusive [activator, full curve, poor fit]
O=C(COc1ccc(Cl)cc1)NCc1nnc(SCC(=O)NCCc2ccccc2)o1 | inconclusive [inhibitor, partial curve, poor fit]
c1ccc(-c2csc(-c3nc4ccccc4[nH]3)n2)cc1 | inconclusive [inhibitor, partial curve]
CCOC(=O)c1cn[nH]c1NC(=S)Nc1ccc(OC)cc1 | inconclusive [inhibitor, single point]
CC(CN(C)Cc1ccccc1)OC(=O)c1ccc2c(c1)OCCO2 (centres undefined) | inconclusive [inhibitor, single point]
COc1ccc(C(C(=O)NC2CCCC2)N2CCc3ccccc32)cc1 (centres undefined) | inconclusive [inhibitor, single point]
CCn1c(=O)cc(OCC(=O)N2CCN(C(=O)c3ccco3)CC2)c2ccccc21 | inconclusive [activator, single point]
Cc1c(Cc2ccccc2)c(=O)oc2c(C)c(OCC(=O)Nc3ccc(C#N)cc3)ccc12 | inconclusive [inhibitor, full curve]
